# Reference: the supplement of paper PMC8728848
# The other results are listed elsewhere or left out.
# B1: NakA (Mycobacterium tuberculosum) (protein)
# chain: SVVKPTKVTVFSPDGGADNPGEADLAIDGNPATSWKTDIYTDPVPFPSFKNGVGLMLQLPQATVVGTVAIDVASTGTKVEIRSASTPTPATLEDTAVLTSATALRPGHNTISVEAAAPTSNLLVWISTLGTTDGKSQADISEITIYAASD
# Columns and labels:
# Experiment in all cases: glycan array binding signal (z-score within array); higher = stronger binding
# Details in all cases: glycan notation: IUPAC condensed, linker removed
# [1] = target: Fuc(a1-3)[Gal(b1-4)]GlcNAc(b1-4)Gal(b1-4)[Fuc(a1-3)]GlcNAc(b1-4)Gal(b1-4)[Fuc(a1-3)]GlcNAc
# Procedure, shortened: (§1)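 Columns mapping to the same glycan were averaged after glycan names were converted to IUPAC-condensed notation. The data come from 3228 arrays in the Consortium for Functional Glycomics database, limited to those with an available protein sequence. Binding is reported as a within-array Z-score averaged across arrays of one protein sequence and across linkers.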
# [2] = target: Fuc(a1-3)[Gal3S(b1-4)]GlcNAc
# Procedure, shortened: as §1
# [3] = target: Fuc(a1-3)[GalNAc(b1-4)]Gal(b1-4)GlcNAc
# Procedure, shortened: as §1
# [4] = target: Fuc(a1-4)GlcNAc
# Procedure, shortened: as §1
# [5] = target: Fuc(b1-3)GlcNAc
# Procedure, shortened: as §1
# [6] = target: Gal(a1-2)Gal
# Procedure, shortened: as §1
# [7] = target: Gal(a1-3)Gal
# Procedure, shortened: as §1
# [8] = target: Gal(a1-3)Gal(b1-3)Glc
# Procedure, shortened: as §1
# [9] = target: Gal(a1-3)Gal(b1-3)GlcNAc
# Procedure, shortened: as §1
# [10] = target: Gal(a1-3)Gal(b1-4)GlcNAc
# Procedure, shortened: as §1
# [11] = target: Gal(a1-3)Gal(b1-4)[Fuc(a1-3)]GalNAc
# Procedure, shortened: as §1
# [12] = target: Gal(a1-3)GlcNAc
# Procedure, shortened: as §1
# [13] = target: Gal(a1-3)[Gal(a1-4)]Gal(b1-4)GlcNAc
# Procedure, shortened: as §1
# [14] = target: Gal(a1-4)Gal(b1-4)Gal
# Procedure, shortened: as §1
# [15] = target: Gal(a1-4)Gal(b1-4)GalNAc
# Procedure, shortened: as §1
# [16] = target: Gal(a1-4)GlcNAc
# Procedure, shortened: as §1
# [17] = target: Gal(a1-6)Glc
# Procedure, shortened: as §1
# [18] = target: Gal(b1-2)Gal
# Procedure, shortened: as §1
# [19] = target: Gal(b1-3)Gal
# Procedure, shortened: as §1
# [20] = target: Gal(b1-3)GalNAc
# Procedure, shortened: as §1
# [21] = target: Gal(b1-3)GalNAc(b1-3)Gal(a1-4)Gal(b1-4)Glc
# Procedure, shortened: as §1
# [22] = target: Gal(b1-3)GalNAc(b1-3)Gal(b1-4)Glc
# Procedure, shortened: as §1
# [23] = target: Gal(b1-3)GalNAc(b1-3)Gal(b1-4)GlcNAc
# Procedure, shortened: as §1
# [24] = target: Gal(b1-3)GalNAc(b1-4)Gal(b1-4)Glc
# Procedure, shortened: as §1
# [25] = target: Gal(b1-3)GalNAc(b1-4)[Neu5Ac(a2-3)]Gal(b1-4)Glc
# Procedure, shortened: as §1
# [26] = target: Gal(b1-3)[Fuc(a1-4)]GlcNAc
# Procedure, shortened: as §1
# [27] = target: Gal(b1-3)[Fuc(a1-4)]GlcNAc(b1-3)Gal(b1-4)GlcNAc
# Procedure, shortened: as §1
# [28] = target: Gal(b1-3)[Fuc(a1-4)]GlcNAc(b1-3)Gal(b1-4)[Fuc(a1-3)]GlcNAc
# Procedure, shortened: as §1
# [29] = target: Gal(b1-3)[GlcNAc(b1-6)]GalNAc
# Procedure, shortened: as §1
# [30] = target: Gal(b1-3)[GlcNAc(b1-6)]GlcNAc
# Procedure, shortened: as §1
# [31] = target: Gal(b1-3)[Neu5Ac(a2-6)]GalNAc
# Procedure, shortened: as §1
# [32] = target: Gal(b1-3)[Neu5Ac(a2-6)]GlcNAc
# Procedure, shortened: as §1
# [33] = target: Gal(b1-3)[Neu5Ac(a2-6)]GlcNAc(a1-4)Gal(b1-4)Glc
# Procedure, shortened: as §1
# [34] = target: Gal(b1-3)[Neu5Ac(b2-6)]GlcNAc
# Procedure, shortened: as §1
# [35] = target: Gal(b1-4)GalNAc(a1-3)[Fuc(a1-2)]Gal(b1-4)GlcNAc
# Procedure, shortened: as §1
# [36] = target: Gal(b1-4)GalNAc(b1-3)[Fuc(a1-2)]Gal(b1-4)GlcNAc
# Procedure, shortened: as §1
# [37] = target: Gal(b1-4)Glc
# Procedure, shortened: as §1
# [38] = target: Gal(b1-4)Glc6S
# Procedure, shortened: as §1
# [39] = target: Gal(b1-4)GlcNAc
# Procedure, shortened: as §1
# [40] = target: Gal(b1-4)GlcNAc(b1-2)Man(a1-3)[Gal(b1-4)GlcNAc(b1-2)Man(a1-6)]Man(b1-4)GlcNAc(b1-4)GlcNAc
# Procedure, shortened: as §1
# [41] = target: Gal(b1-4)GlcNAc(b1-3)Gal(b1-4)Glc
# Procedure, shortened: as §1
# [42] = target: Gal(b1-4)GlcNAc(b1-3)Gal(b1-4)GlcNAc
# Procedure, shortened: as §1
# [43] = target: Gal(b1-4)GlcNAc(b1-3)Gal(b1-4)GlcNAc(b1-3)Gal(b1-4)GlcNAc
# Procedure, shortened: as §1
# [44] = target: Gal(b1-4)GlcNAc(b1-3)Gal(b1-4)[Fuc(a1-3)]GlcNAc(b1-3)Gal(b1-4)[Fuc(a1-3)]GlcNAc
# Procedure, shortened: as §1
# [45] = target: Gal(b1-4)GlcNAc(b1-3)GalNAc
# Procedure, shortened: as §1
# [46] = target: Gal(b1-4)GlcNAc(b1-3)[Gal(b1-4)GlcNAc(b1-6)]GalNAc
# Procedure, shortened: as §1
# [47] = target: Gal(b1-4)GlcNAc(b1-6)GalNAc
# Procedure, shortened: as §1
# [48] = target: Gal(b1-4)GlcNAc(b1-6)[Gal(b1-3)]GalNAc
# Procedure, shortened: as §1
# [49] = target: Gal(b1-4)GlcNAc(b1-6)[Gal(b1-3)]GlcNAc
# Procedure, shortened: as §1
# [50] = target: Gal3S(b1-3)GalNAc
# Procedure, shortened: as §1
# [51] = target: Gal3S(b1-3)GlcNAc
# Procedure, shortened: as §1
# [52] = target: Gal3S(b1-3)[Fuc(a1-4)]GlcNAc
# Procedure, shortened: as §1
# [53] = target: Gal3S(b1-4)Glc
# Procedure, shortened: as §1
# [54] = target: Gal3S(b1-4)Glc6S
# Procedure, shortened: as §1
# [55] = target: Gal3S(b1-4)GlcNAc
# Procedure, shortened: as §1
# [56] = target: Gal3S(b1-4)GlcNAc6S
# Procedure, shortened: as §1
# [57] = target: Gal3S6S(b1-4)GlcNAc
# Procedure, shortened: as §1
# [58] = target: Gal3S6S(b1-4)GlcNAc6S
# Procedure, shortened: as §1
# [59] = target: Gal4S(b1-4)GlcNAc
# Procedure, shortened: as §1
# [60] = target: Gal4S6S(b1-4)GlcNAc
# Procedure, shortened: as §1
# [61] = target: Gal6S(b1-4)Glc
# Procedure, shortened: as §1
# [62] = target: Gal6S(b1-4)Glc6S
# Procedure, shortened: as §1
# [63] = target: Gal6S(b1-4)GlcNAc
# Procedure, shortened: as §1
# [64] = target: GalNAc(a1-3)Gal
# Procedure, shortened: as §1
# [65] = target: GalNAc(a1-3)GalNAc
# Procedure, shortened: as §1
# [66] = target: GalNAc(b1-3)Gal(a1-4)Gal(b1-4)GlcNAc
# Procedure, shortened: as §1
# [67] = target: GalNAc(b1-4)GlcNAc
# Procedure, shortened: as §1
# [68] = target: Glc(a1-4)Glc
# Procedure, shortened: as §1
# [69] = target: Glc(a1-6)Glc(a1-6)Glc
# Procedure, shortened: as §1
# [70] = target: Glc(b1-4)Glc
# Procedure, shortened: as §1
# [71] = target: Glc(b1-6)Glc
# Procedure, shortened: as §1
# [72] = target: GlcA(b1-3)Gal
# Procedure, shortened: as §1
# [73] = target: GlcA(b1-6)Gal
# Procedure, shortened: as §1
# [74] = target: GlcNAc(a1-3)Gal(b1-4)GlcNAc
# Procedure, shortened: as §1
# [75] = target: GlcNAc(a1-6)Gal(b1-4)GlcNAc
# Procedure, shortened: as §1
# [76] = target: GlcNAc(b1-2)Gal(b1-3)GlcNAc
# Procedure, shortened: as §1
# [77] = target: GlcNAc(b1-2)Man(a1-3)[GlcNAc(b1-2)Man(a1-6)]Man(b1-4)GlcNAc(b1-4)GlcNAc
# Procedure, shortened: as §1
# [78] = target: GlcNAc(b1-3)Gal
# Procedure, shortened: as §1
# [79] = target: GlcNAc(b1-3)Gal(b1-3)GalNAc
# Procedure, shortened: as §1
binder,measurement,setting,value
B1,glycan array binding signal (z-score),[1],-0.308
same,glycan array binding signal (z-score),[2],-0.293
same,glycan array binding signal (z-score),[3],-0.165
same,glycan array binding signal (z-score),[4],0.475
same,glycan array binding signal (z-score),[5],0.066
same,glycan array binding signal (z-score),[6],-0.019
same,glycan array binding signal (z-score),[7],0.214
same,glycan array binding signal (z-score),[8],-0.063
same,glycan array binding signal (z-score),[9],-0.365
same,glycan array binding signal (z-score),[10],-0.289
same,glycan array binding signal (z-score),[11],1.71
same,glycan array binding signal (z-score),[12],-0.187
same,glycan array binding signal (z-score),[13],-0.295
same,glycan array binding signal (z-score),[14],-0.487
same,glycan array binding signal (z-score),[15],-0.122
same,glycan array binding signal (z-score),[16],0.194
same,glycan array binding signal (z-score),[17],-0.122
same,glycan array binding signal (z-score),[18],-0.261
same,glycan array binding signal (z-score),[19],-0.154
same,glycan array binding signal (z-score),[20],-0.45
same,glycan array binding signal (z-score),[21],-0.428
same,glycan array binding signal (z-score),[22],-0.491
same,glycan array binding signal (z-score),[23],-0.519
same,glycan array binding signal (z-score),[24],-0.266
same,glycan array binding signal (z-score),[25],-0.456
same,glycan array binding signal (z-score),[26],-0.062
same,glycan array binding signal (z-score),[27],0.059
same,glycan array binding signal (z-score),[28],-0.089
same,glycan array binding signal (z-score),[29],-0.429
same,glycan array binding signal (z-score),[30],-0.396
same,glycan array binding signal (z-score),[31],-0.457
same,glycan array binding signal (z-score),[32],-0.536
same,glycan array binding signal (z-score),[33],-0.386
same,glycan array binding signal (z-score),[34],-0.353
same,glycan array binding signal (z-score),[35],-0.206
same,glycan array binding signal (z-score),[36],-0.312
same,glycan array binding signal (z-score),[37],-0.139
same,glycan array binding signal (z-score),[38],-0.423
same,glycan array binding signal (z-score),[39],-0.385
same,glycan array binding signal (z-score),[40],-0.5
same,glycan array binding signal (z-score),[41],0.248
same,glycan array binding signal (z-score),[42],-0.429
same,glycan array binding signal (z-score),[43],-0.502
same,glycan array binding signal (z-score),[44],0.016
same,glycan array binding signal (z-score),[45],-0.439
same,glycan array binding signal (z-score),[46],-0.414
same,glycan array binding signal (z-score),[47],-0.141
same,glycan array binding signal (z-score),[48],-0.553
same,glycan array binding signal (z-score),[49],-0.465
same,glycan array binding signal (z-score),[50],-0.361
same,glycan array binding signal (z-score),[51],-0.117
same,glycan array binding signal (z-score),[52],-0.128
same,glycan array binding signal (z-score),[53],-0.516
same,glycan array binding signal (z-score),[54],-0.365
same,glycan array binding signal (z-score),[55],-0.408
same,glycan array binding signal (z-score),[56],-0.367
same,glycan array binding signal (z-score),[57],-0.287
same,glycan array binding signal (z-score),[58],-0.182
same,glycan array binding signal (z-score),[59],-0.338
same,glycan array binding signal (z-score),[60],-0.438
same,glycan array binding signal (z-score),[61],-0.278
same,glycan array binding signal (z-score),[62],-0.213
same,glycan array binding signal (z-score),[63],-0.327
same,glycan array binding signal (z-score),[64],-0.414
same,glycan array binding signal (z-score),[65],0.081
same,glycan array binding signal (z-score),[66],-0.418
same,glycan array binding signal (z-score),[67],-0.305
same,glycan array binding signal (z-score),[68],-0.157
same,glycan array binding signal (z-score),[69],-0.203
same,glycan array binding signal (z-score),[70],-0.512
same,glycan array binding signal (z-score),[71],0.014
same,glycan array binding signal (z-score),[72],0.062
same,glycan array binding signal (z-score),[73],-0.548
same,glycan array binding signal (z-score),[74],-0.002
same,glycan array binding signal (z-score),[75],0.447
same,glycan array binding signal (z-score),[76],-0.263
same,glycan array binding signal (z-score),[77],-0.45
same,glycan array binding signal (z-score),[78],-0.245
same,glycan array binding signal (z-score),[79],-0.169
